The whole screen tested about 210,000 compounds, of which about 730 (0.35%) were called active. The shares of active, inactive and inconclusive entries below differ from those in the screen. Calls follow the shape of the dose curve; as a rule, active = well fitted inhibition curve with a large enough effect; inconclusive = small, poorly fitted or top-dose-only effect; inactive = no such curve, though single readings can be large or run the other way. Where the call is inconclusive, the potency comes from a doubtful curve fit.
Assay: qHTS Assay for Identifying the Cell-Membrane Permeable IMPase Inhibitors: Potentiation with Lithium; also: nearly all actives have a fitted effect of over 50% in size
Settings: CHO-M1 cells, IP1 TR-FRET (IP-One), carbachol + lithium; series mostly up to 59.4 µM
How it was run: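 CHO-M1, 2000 cells/well, 16–30 h culture; cpd + low Li+, 30 min 37C; lysis with d2-IP1/Eu-anti-IP1 Ab, 10 min RT; TR-FRET 665/620 ratio and 620 channel; AC50 via Hill.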
Potency is read from the fitted curve at half-maximal effect.

SMILES	Potency
O=C(CCCCn1c(=O)[nH]c2ccccc2c1=O)N1CCN(c2ncccn2)CC1	inconclusive: 3.16 µM [inhibitor, single point]
N#CCCn1c(=O)c(-c2ccccc2)nc2cnc(Oc3cccc(Cl)c3)nc21	inconclusive: 28.2 µM [inhibitor, single point]
Cc1nc2ccc(NC(=O)CCS(=O)(=O)c3ccccc3)cc2s1	inactive
CC(C)SCC(=O)Nc1ncc2c(n1)-c1ccccc1CC2	inconclusive: 11.2 µM [inhibitor, single point]
COc1cccc(NC(=O)CSc2nnc(-c3ccc(C)cc3)o2)c1	inconclusive: 20 µM [inhibitor, single point]
COc1ccc(-n2nc(C(=O)NCc3ccco3)c3c4ccccc4n(C)c3c2=O)cc1Cl	inconclusive: 14.1 µM [inhibitor, single point]
COc1cc(/C=N/NC(=O)Cn2ccc(C(F)(F)F)n2)cc(OC)c1OC	inconclusive: 3.16 µM [inhibitor, partial curve]
COc1ccc(N(Cc2cc3cc(OC)ccc3[nH]c2=O)S(C)(=O)=O)cc1	inconclusive: 28.2 µM [inhibitor, single point]
O=C(/C=C/c1c(Cl)nc2ccccn12)Nc1ccc(F)cc1	inconclusive: 5.01 µM [inhibitor, single point]
COCCn1c(SCC(=O)Nc2ccccc2OC)nc2c(oc3ccccc32)c1=O	inactive
CSc1ccc(-c2c(C#N)c(N)nc3c2CCCC3)cc1	inconclusive: 28.2 µM [inhibitor, single point]
COC(=O)c1ccc(C(NC(=O)OCc2ccccc2)/C(C)=C/[C@@H](C)C(=O)NCc2cccnc2)cc1 (stereo partly specified)	inactive
COc1ccc(-n2c3nc4ccccc4nc3c3c(=N)oc(C)nc32)cc1	inconclusive: 10 µM [inhibitor, partial curve]
CC(=O)Nc1sc(C)c(C)c1C(=O)OCC(=O)N(CC(C)C)C1CCS(=O)(=O)C1 (stereo unspecified)	inconclusive: 25.1 µM [inhibitor, partial curve]
CCOc1ccc(Cc2c(Cl)nc(N)nc2Cl)cc1	inconclusive: 28.2 µM [inhibitor, single point]
Cc1ccc(N(C(=O)c2ccncc2)C2C=CS(=O)(=O)C2)cc1 (stereo unspecified)	inconclusive: 11.2 µM [inhibitor, single point]
O=C1Nc2ccccc2C12OCC(COc1ccc(Cl)cc1)O2 (stereo unspecified)	inactive
Cc1ccccc1OCC(=O)N/N=C/c1ccc(Sc2nc3ccccc3s2)o1	inactive
C=CCN1C(=O)c2cccc3c(Br)ccc(c23)C1=O	inconclusive: 10 µM [inhibitor, partial curve]
CCOc1cc(C2C(C#N)=C(N)SC(N)=C2C#N)ccc1OCCN1CCOCC1	inconclusive: 12.6 µM [inhibitor, single point]
CCOC(=O)C1CCN(CC(=O)N(CC(C)C)c2c(N)n(CC(C)C)c(=O)[nH]c2=O)CC1	inconclusive: 3.98 µM [inhibitor, single point]
COc1ccc2[nH]c(=O)c(CN(Cc3ccco3)Cc3nnnn3Cc3ccccc3)cc2c1	inconclusive: 28.2 µM [inhibitor, single point]
CCN(CC)Cc1c(O)ccc2c(C)c(CC(=O)OC)c(=O)oc12	active: 10 µM
CCOC(=O)c1sc(-c2ccccc2)cc1NC(=O)c1ccc(S(=O)(=O)N(CCOC)CCOC)cc1	inconclusive: 5.01 µM [inhibitor, single point]

SMILES	Potency
Cc1nc(-c2ccccc2)cs1	inconclusive: 1 µM [inhibitor, full curve]
O=C(O)c1cnc(-c2ccccc2)nc1Sc1ccc(Cl)cc1	inactive
CC(C(=O)O)c1ccc(C(=O)c2cccs2)cc1 (stereo unspecified)	inconclusive: 5.01 µM [inhibitor, partial curve]
Cc1ccc(-n2c(=O)c3sccc3n(CC(=O)NCc3ccco3)c2=O)cc1F	inconclusive: 28.2 µM [inhibitor, single point]
CCOC(=O)N1CCN(c2cc3[nH]c(=S)[nH]c3cc2F)CC1	inactive
CC(=O)c1ccc(-c2nc3ccccc3n2C)o1	inconclusive: 11.2 µM [inhibitor, single point]
COC(=O)c1ccc2c(=O)n(CC3CCCO3)c(SCC(=O)Nc3ccccc3OC)nc2c1 (stereo unspecified)	inconclusive: 28.2 µM [inhibitor, single point]
COc1ccc(/C=N/NC(=O)CNC(=O)c2ccc(S(=O)(=O)N3CCOCC3)cc2)cc1OC	inactive
CC1(C)Cc2nc3sc4c(SCC(=O)NCc5ccccc5)ncnc4c3cc2CO1	inconclusive: 28.2 µM [inhibitor, single point]
COc1ccc2c(c1OC)C(=O)OC2Nc1ncc(Br)cc1Br (stereo unspecified)	inactive
CCN(CCCNC(=O)CCn1c(=O)[nH]c2ccsc2c1=O)c1ccccc1	inconclusive: 5.01 µM [inhibitor, single point]
Cc1ccc(OCc2nc(-c3ccc(-n4cccc4)cc3)no2)cc1C	inconclusive: 11.2 µM [inhibitor, partial curve]
CN(C)CCOC(=O)c1sc2ccccc2c1Cl	inconclusive: 11.2 µM [inhibitor, partial curve]
CN(C(=O)c1c(O)c2ccccc2n(C)c1=O)c1ccccc1	inactive
O=c1[nH]c2ccc(Br)cc2c(-c2ccccc2)c1N1CCOCC1	inactive
COc1ccc(OC)c2c1sc(=NC(=O)c1cccc(N3C(=O)CCC3=O)c1)n2C	inconclusive: 28.2 µM [inhibitor, single point]
CCn1ccnc1CN(C)Cc1cn[nH]c1-c1ccc(OC)c(F)c1	inactive
CC1(C)Cc2c(c(N3CCOCC3)nc3sc(-c4ccc(C(=O)O)o4)c(N)c23)CO1	inconclusive: 28.2 µM [inhibitor, single point]
CC(=O)NC(=S)Nc1ccc(-c2nc3ccc(C)cc3s2)cc1	active: 14.1 µM
CCn1c(=O)n(CC)c2cc(S(=O)(=O)Nc3cc(C)cc(C)c3C#N)ccc21	inactive
O=c1c2c3c(sc2nc2n1CCC2)CCC3	inactive
CCN1CCN(C(=S)c2ccc(-c3ccccc3)cc2)CC1	inactive
CSc1nnc(-c2ccccc2SC)o1	inconclusive: 12.6 µM [inhibitor, single point]
Cc1ccc(-n2nnc3c(SCC(=O)NCC4CCCO4)ncnc32)cc1 (stereo unspecified)	inactive

SMILES	Potency
COc1cccc2c(=O)n(CC(=O)Nc3ccccc3)ccc12	inconclusive: 20 µM [inhibitor, single point]
COC(=O)c1ccc(COn2c(=O)c(C)[n+]([O-])c3ccccc32)cc1	inconclusive: 31.6 µM [inhibitor, single point]
O=C(C1CCCN(Cc2ccccc2Br)C1)N1CCCCC1 (stereo unspecified)	inactive
Cc1nn(CCc2nc(-c3ccco3)cs2)c2[nH]c(=O)cc(C(F)(F)F)c12	inconclusive: 31.6 µM [inhibitor, partial curve]
O=C(/C=C\Nc1ccc2c(c1)OCO2)c1ccc2c(c1)OCO2	inactive
CSc1c(SCc2ccccc2)cnn(-c2ccccc2)c1=O	inconclusive: 14.1 µM [inhibitor, single point]
CCCn1c(CN(Cc2ccccc2)Cc2ccccc2)nc2c1c(=O)n(C)c(=O)n2C	inconclusive: 22.4 µM [inhibitor, single point]
COc1ccc2cc(Br)ccc2c1CC(=O)NC1CC(C)(C)NC(C)(C)C1	inconclusive: 28.2 µM [inhibitor, single point]
Cc1ccccc1-c1n[nH]c(=S)o1	active: 10 µM
CCOC(=O)c1ccc(N2C(=O)C(O)=C(C(C)=O)C2c2ccccc2)cc1 (stereo unspecified)	inconclusive: 8.91 µM [inhibitor, partial curve]
Cc1ccc(C(=O)OCc2cc3ccccc3[nH]c2=O)cc1	inconclusive: 31.6 µM [inhibitor, single point]
Cc1nc(C)c(/C(O)=C/c2nc3ccc([N+](=O)[O-])cc3oc2=O)o1	inconclusive: 11.2 µM [inhibitor, single point]
CCOc1ccc(C2C(C#N)=C(N)SC(N)=C2C#N)cc1OC	inconclusive: 12.6 µM [inhibitor, single point]
COc1cc(OC)cc(-c2nc3ccccc3c(=O)n2OC(=O)c2ccc(Br)cc2)c1	inactive
CCCN1C(=O)C2(/C(=C(\O)c3ccc4c(c3)OCCO4)C(=O)C(=O)N2CCCOC)c2ccccc21 (stereo unspecified)	inconclusive: 10 µM [inhibitor, partial curve]
CC(=O)c1ccc(Oc2ccc(C(=O)c3ccc(C)c(C)c3)cc2[N+](=O)[O-])cc1	inactive
COC(=O)[C@@H]1[C@H]2C[C@H]3c4[nH]c5ccccc5c4CCN3C[C@H]2CC[C@@H]1O	inconclusive: 31.6 µM [inhibitor, single point]
COCCN(C(=O)COc1ccc(Cl)cc1)c1nnc(-c2cccnc2)s1	inconclusive: 28.2 µM [inhibitor, single point]
CC(=O)Nc1ccc(-c2cc(-c3ccc(NC(C)=O)cc3)nc(-c3ccccc3)n2)cc1	active: 31.6 µM
CSc1nc(C)cc(/C=C\c2ccccc2)c1C#N	inconclusive: 28.2 µM [inhibitor, single point]
O=C(N/N=C/c1sc(N2CCOCC2)nc1-c1ccccc1)c1ccccc1O	inactive
Nc1c(-c2ccccc2)nc(Cl)nc1-c1ccccc1	inconclusive: 11.2 µM [inhibitor, partial curve, poor fit]
Cc1c(C2=CCN(S(=O)(=O)c3ccc(Br)cc3)CC2)c2ccccc2n1C	inactive
